In all, about 150,000 compounds went through this assay and about 540 (0.36%) showed an effect of 50% or more. This is one part of the list.
The compounds below were run on Plasmodium falciparum (assay: Primary screen in NF54 nanoGlo assay, in single point, at 2uM, 72h; a lower Z score goes with more inhibition). Conditions: timepoint 72 hour.
Type: functional, Erythrocyte

Row | SMILES | % Inhibition | Z score
1 | O=c1ccn(Cc2nc3ccccc3o2)c2ccsc12 | 2% | -0.21
2 | CCOc1ccc(CNC(=O)c2ccc3c(c2)N(S(C)(=O)=O)CC3)cc1OC | -6% | 0.73
3 | CC(=O)N[C@H]1C[C@@H](c2c(C)nn(-c3ccccc3)c2C)O[C@@H](C(C)(C)C)C1 | -11% | 1.4
4 | Cc1ccc2ccccc2c1NC(=O)N[C@@]1(C)CCOC1 | -10% | 1.97
5 | C[n+]1ccccc1/C=C/c1c[nH]c2ccccc12 | 91% | -8.06
6 | O=C(OC1(C2CC2)CC1)c1coc(-c2ccccc2)n1 | -4% | 0.59
7 | Cc1ncc(NC(=O)N2CCC3CCC(C2)S3(=O)=O)c(C2CC2)n1 (stereo not given) | -9% | 1.56
8 | O=C(NCCOc1ccccc1)c1cc2n(n1)CCN(Cc1ccc(Cl)cc1)C2=O | 2% | -0.24
9 | O=C(c1cccc(NS(=O)(=O)c2cc(Cl)ccc2Cl)c1)N1CCC=C(F)C1 | 6% | -0.72
10 | COc1ccc(-c2cnccc2N)c(-n2nc(C)cc2C)c1 | 0% | 0.04
11 | Cc1ccccc1-c1nc2[nH]c(CN3CCOCC3)cc(=O)n2n1 | -1% | 0.1
12 | CN1CCCN(Cc2noc(C3CC3)n2)c2cc(F)ccc21 | -3% | 0.45
13 | Cc1ccc2c(c1)CN(Cc1cccc(O)c1)C[C@@H](c1ccsc1)O2 | 8% | -1.16
14 | Cc1ccc(-c2csc(NC(=O)[C@@H](c3ccccc3)N3CCC(C)CC3)n2)cc1 | -14% | 2.61
15 | CCCN(C(=O)c1cc2c(=O)n(C)c3ccccc3n2n1)c1cccc(C)c1 | -15% | 1.82
16 | O=C(NC1CCCCC1)c1ccc(N2C(=O)CCS2(=O)=O)cc1Cl | -11% | 1.41
17 | CC1(C)CN(C[C@H](O)COCc2ccccc2)CCCO1 | -6% | 0.72
18 | COc1ccccc1CC(=O)NCC1CCOCC1 | 0% | 0.03
19 | COc1ccc(-c2nn(-c3cc(C)ccc3C)c(OC(C)=O)c2-c2ccc(NC(=O)c3ccccc3)cc2)cc1 | 0% | -0.06
20 | Cc1cc(=O)c(C(=O)N2CCOc3ccccc3[C@@H]2C)c[nH]1 | -2% | 0.3
21 | CO[C@H]1COC[C@H]1S(=O)(=O)NCc1cccc2nsnc12 | -4% | 0.52
22 | O=C(NCCCN1CCOCC1)c1c2c(nc3ccccc13)C(=O)N(C1CCCCC1)C2 | -17% | 1.84

Row | SMILES | % Inhibition | Z score
23 | Cc1nnsc1C(=O)N(C)CC[C@H]1CCCO1 | -12% | 2.26
24 | Cc1n[nH]c(C)c1CN1CCC[C@H](CNC(=O)NC2CCCC2)C1 | 2% | -0.2
25 | NC(=O)C1(CC2CC2)CCN(Cc2ccncc2F)CC1 | 0% | 0.05
26 | c1ccc(C2CN(c3ncnc4[nH]cnc34)C2)nc1 | -3% | 0.45
27 | Cc1ccc(NC(=O)Cn2nc3c(N4CC(C)CC(C)C4)nccn3c2=O)cc1 (stereo not given) | -9% | 1.42
28 | CO[C@@H](C)C(=O)Nc1c(C(O)(C(F)(F)F)C(F)(F)F)cnn1C(C)C | 5% | -0.65
29 | CCn1cc(NC(=O)NCCN2CC[C@H](c3ccccc3C)C2)nn1 | 3% | -0.48
30 | CC(C)N(CCN(C)C)C(=O)Nc1ccc(-n2ncn(C)c2=O)cc1 | -11% | 1.76
31 | Cc1ccc(S(=O)(=O)C[C@H](CN2CCCC2)N2CCCC2)cc1 | 31% | -3.47
32 | CO[C@@]1(CNC(=O)c2ccc(OC(C)(C)C)cn2)CCOC1 | -12% | 1.72
33 | CC(C)[C@]1(C)CC(=O)N(CCOCC(F)F)C1=O | -6% | 0.7
34 | OCCOCCNCc1cccc(Cl)c1 | 28% | -3.74
35 | Cc1c(COc2ccccc2)cccc1N[C@H]1CCNC1=O | -11% | 1.36
36 | CN(C[C@H]1CCCN1C)c1ccnc(C(=O)NCc2cccnc2)c1 | 5% | -1
37 | CC1CCN(S(=O)(=O)c2cc(-c3nnc(C(C)C)o3)co2)CC1 | 5% | -0.66
38 | CC(C)(C)OC(=O)N1CC(N2CCC(S(N)(=O)=O)CC2)C1 | -4% | 0.67
39 | COC1CN(C(=O)Nc2ccc3c(c2)C(=O)CCC3)CCC1C (stereo not given) | -10% | 1.9
40 | Cc1ccc(CNc2nc(C)nc3c(-c4ccc(C)cc4)noc23)cc1 | -20% | 2.54
41 | COc1cccc(C(=O)N2CC(C(=O)NCC3CC3)C(c3cccc(OC)c3OC)C2)c1 (stereo not given) | 0% | 0.01
42 | COc1cccc([C@H]2CC(=O)Nc3nc(N)sc32)c1OCc1ccc(Cl)cc1 | -8% | 0.84
43 | CCC(C)CC(C)NC(=O)Nc1cc(S(C)(=O)=O)ccc1F (stereo not given) | 0% | 0
44 | Cc1c(Cl)cccc1C(=O)NC[C@H](CC1CC1)C(=O)O | -5% | 0.69

Row | SMILES | % Inhibition | Z score
45 | CC(c1ccccc1)C(C)(O)C(=O)NCC1CCC(C)(C)O1 (stereo not given) | 4% | -0.38
46 | CCc1cccc(C)c1NC(=O)CN(C)CC(=O)N1CCN(Cc2ccccc2)CC1 | -3% | 0.36
47 | C[C@H]1c2ccccc2CCN1CCc1nc2ccccc2c(=O)[nH]1 | -6% | 1.14
48 | CCOc1ccc([C@H]2C(=O)N(C3CCCCCC3)CC(=O)N2Cc2ccc(OC)cc2)cc1OC | 9% | -1.53
49 | CN(C)C(=O)CNC(=O)COc1ccc(Cl)cc1 | 1% | -0.16
50 | COc1ccccc1CCNC(=O)C1Cc2cc(C(F)(F)F)ccc2N2CCN(c3ncccn3)CC12 (stereo not given) | -4% | 0.7
51 | O=C(NCc1noc(Cc2ccccc2)n1)c1coc(C2CC2)n1 | -6% | 0.88
52 | CC1CC1C(=O)NCc1nnnn1C1CC1 (stereo not given) | -12% | 1.58
53 | CCCC[C@H](CC)C(=O)NC1CCCCC1 | 36% | -0.74
54 | O=C(CC1(C(F)(F)F)CC1)N1CC[C@@H](c2ccccc2)S1(=O)=O | 3% | -0.29
55 | O=C(c1cccc(-n2cccn2)n1)N1CCC=Cc2ccccc21 | -8% | 1.16
56 | O=C(CCC1CCCC1)N1CCC(N2CCCCCC2)CC1 | 36% | -0.84
57 | Cc1cc(Cc2ccc(S(=O)(=O)Nc3ccc(C)c(C)c3)cc2)c(=O)[nH]n1 | -4% | 0.37
58 | Cc1cc(C)cc(C(=O)N2CCN(c3cc(-c4ccc(Cl)cc4)ncn3)CC2)c1 | -9% | 1.31
59 | O=C([C@@H](c1ccccc1)C1CC1)N1CCc2cnccc21 | -17% | 1.79
60 | CCc1nc(C(=O)N2CCN(Cc3ccccc3)C[C@@H]2CC)co1 | 2% | -0.3
61 | CCC(NCC1CCCn2ccnc21)C(=O)Nc1cc(C)on1 (stereo not given) | 13% | -1.5
62 | CCc1nccn1CCC(=O)N(CC(C)C)CC1CCN(Cc2ccccc2OC)CC1 | -8% | 1.2
63 | C[C@H](NC(=O)CCc1c[nH]c2ccccc12)c1ccco1 | 6% | -0.75
64 | Cc1cc(NC(=O)c2nc3ccccn3c2F)ccc1N1CCCC1=O | -19% | 1.9
65 | Cc1cc(Cn2cc3c4c(cccc42)[C@H](CC(C)C)N[C@H](C(=O)NCCN2CCOCC2)C3)no1 | -12% | 1.84
66 | CN(C(=O)c1ccccn1)C1(C(=O)NC2CCCCC2)CCCCC1 | -6% | 0.68

Row | SMILES | % Inhibition | Z score
67 | O=C(NCC1CCN(C(=O)c2ccc[nH]2)CC1)c1ccoc1 | -5% | 0.73
68 | CCc1cc(C(=O)Nc2c(OC)ncnc2N(C)C)sc1C | -6% | 0.94
69 | Cn1ccc([C@@H]2CCCCCN2C(=O)c2ccccc2F)n1 | 4% | -0.56
70 | C[C@@H]1OCCO[C@@H]1C(=O)Nc1nc2cnccc2[nH]1 | 11% | -1.65
71 | CCCCc1ccc(N(C)C(=O)c2ccc3nncn3c2)cc1 | -10% | 1.5
72 | CN(Cc1ccc(OC23CCCN(CC2)C3)cc1)Cc1ncc[nH]1 (stereo not given) | -18% | 1.94
73 | CCc1ccc(NC(=O)N2CCC3(CCC(=O)N(CC4CC4)C3)CC2)cc1 | 4% | -0.7
74 | Cc1ccc(N2CC(C(=O)NCC(O)CN3CCOCC3)CC2=O)cc1 (stereo not given) | -2% | 0.26
75 | COc1ccc(Cn2nc(C3CC3)nc2C2CC2)cc1 | 4% | -0.57
76 | COc1ccc(OC)c(CNC(=O)CN2CCn3nc(-c4ccc(Cl)cc4)cc3C2=O)c1 | -5% | 0.6
77 | COC(=O)[C@H]1CC[C@@H](Nc2ccc(C#N)cc2F)C1 | 0% | 0.05
78 | CCOC(=O)C(=O)Nc1nnc(C(C)C)s1 | -10% | 1.89
79 | CN1C(=O)[C@@H]2CC[C@H]1CN(Cc1c(-c3ccccc3)nc3ncccn13)C2 | 1% | -0.17
80 | Cc1cc(C(=O)[C@H](C#N)c2nc(C(C)C)cs2)c(C)o1 | -10% | 1.62
81 | CNC(=O)[C@H](CNC(=O)c1ccc(=O)[nH]n1)Cc1ccc(F)cc1C | -8% | 1.4
82 | CCOc1ccc(CNC(=O)c2sc3ncnc(N(C)C4CCCCC4)c3c2C)cc1 | -13% | 1.18
83 | Cc1ccc(N(C(=O)CC2CS(=O)(=O)C2)C2CCOCC2)cc1F | -10% | 1.38
84 | CC(C)C(=O)NCCc1ccc(Cl)s1 | -6% | 1.14
85 | Cc1ccc(CN2CCN(Cc3cc(=O)n4ncnc4[nH]3)C[C@@H]2CCO)o1 | -5% | 0.98

Source: ChEMBL document CHEMBL4888484, “Replenishing the malaria drug discovery pipeline: Screening and hit evaluation of the MMV Hit Generation Library 1 (HGL1) against asexual blood stage Plasmodium falciparum ,using a nano luciferase reporter read-out” (2022)
